{"source": "PubChem BioAssay AID651820", "about": "(National Center for Advancing Translational Sciences (NCATS), 2012)", "note": "Where “and” joins values, the source holds several entries; their conditions need not be identical. Identical values can stand only once. Among all 340,000 compounds or so, about 12,000 (3.5%) were called active. Inconclusive results, whose numbers are uncertain, are shown with a selection of clear calls. The call rests on the fitted dose curve; in most records, active means well fitted inhibition curve with a large enough effect; inconclusive means small, poorly fitted or top-dose-only effect, or another doubt; inactive means no such curve, though single readings can be large or run the other way. Where the call is inconclusive, the potency comes from a doubtful curve fit. On the % scale 0 is the no-effect control and ±100 the full control effect; potency means the concentration at half of the fitted maximal effect; tags describe the fitted curve by direction and shape."}
{"test": "qHTS Assay for Inhibitors of Hepatitis C Virus (HCV)", "settings": "Huh7.5.1 HCVcc-Cre (HCVcc is cell-culture hepatitis C virus) infection, luciferase reporter, 44 h; activity change, negative = inhibition: at 41.8 µM (top of the series) unless noted", "procedure,_shortened": "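Infectious HCV cell culture screen: compound-treated cells (1,000/well, pre-plated 4 h) are infected with HCVcc-Cre at roughly 0.5 moi and grown 44 h. Infection is quantified by luciferase signal after 15 min substrate incubation at room temperature.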"}
{"smiles": "CCOC(=O)c1[nH]c(COC(=O)c2ccccc2NC(=O)c2ccco2)c(C(=O)OCC)c1C", "Potency": "inconclusive: 31.6 µM [inhibitor, single point]"}
{"smiles": "CCOc1ccccc1NC(=O)N1CCCC1C(=O)NCc1cccs1", "note": "(configuration not stated)", "activity change, negative = inhibition": "inactive: 7.9%"}
{"smiles": "CCc1ccc(NC(=O)C(C)OC(=O)/C=C/c2ccc(O)c(OC)c2)cc1", "note": "(configuration not stated)", "Potency": "inconclusive: 10 µM [inhibitor, partial curve]"}
{"smiles": "O=S(=O)(NCc1ccccn1)c1ccccn1", "activity change, negative = inhibition": "inactive: 26.9%"}
{"smiles": "COC(=O)c1ccc(N2CCN(S(=O)(=O)c3ccccc3)CC2)c([N+](=O)[O-])c1", "Potency": "inconclusive: 11.2 µM [inhibitor, single point]"}
{"smiles": "CCOC(=O)c1ccc(NS(=O)(=O)c2cc(C)ccc2OC)cc1", "Potency": "inconclusive: 15.8 µM [inhibitor, single point]"}
{"smiles": "c1ccc(-c2nc(NCC3CCCO3)c3ccccc3n2)nc1", "note": "(configuration not stated)", "Potency": "inconclusive: 12.6 µM [inhibitor, partial curve]"}
{"smiles": "Cc1ccc(S(=O)(=O)c2nc(-c3ccco3)oc2SCC(=O)NCC2CCCO2)cc1", "note": "(configuration not stated)", "Potency": "inconclusive: 22.4 µM [inhibitor, single point]"}
{"smiles": "O=C(c1ccccc1)c1ccc(OCC(O)CN2CCN(S(=O)(=O)N3CCCCC3)CC2)cc1", "note": "(configuration not stated)", "Potency": "inconclusive: 15.8 µM [inhibitor, single point]"}
{"smiles": "CCOc1ccc(Cc2nnc(SCC(=O)Nc3ccc(OC)cc3)n(N)c2=O)cc1", "Potency": "inconclusive: 22.4 µM [inhibitor, single point]"}
{"smiles": "CCC(=O)N1CCc2cc(S(=O)(=O)NCCC(=O)N3CCN(c4cccc(C)c4)C(C)C3)ccc21", "note": "(configuration not stated)", "Potency": "active: 14.1 µM"}
{"smiles": "COc1ccc(NS(=O)(=O)c2cc(NC(=O)C3=NN(c4ccccc4)C(=O)CC3)ccc2C)cc1", "activity change, negative = inhibition": "inactive: -16.1%"}
{"smiles": "CCN1C(=O)S/C(=C/c2ccc(Sc3nc4ccccc4[nH]3)o2)C1=O", "Potency": "inconclusive: 2.82 µM [inhibitor, full curve]"}
{"smiles": "CCN(C[C@H]1N[C@@](Cc2ccccc2)(C(=O)OC)[C@H]2C(=O)N(C)C(=O)[C@@H]12)C(=O)C1CCCCC1", "activity change, negative = inhibition": "inactive: 31.2% [at 8.37 µM]"}
{"smiles": "N#C/C(C(=O)Oc1ccccc1)=C1\\C=CC=CN1", "Potency": "inconclusive: 5.62 µM [inhibitor, single point]"}
{"smiles": "COc1ccc2c(=O)c(-c3cnn(-c4ccccc4)c3)c(C)oc2c1", "Potency": "inconclusive: 31.6 µM [inhibitor, single point]"}
{"smiles": "Cc1c(OC(C)C(=O)NCC(O)c2ccccc2)ccc2c3c(c(=O)oc12)CCC3", "note": "(configuration not stated)", "Potency": "inconclusive: 11.2 µM [inhibitor, partial curve]"}
{"smiles": "Cc1ccc(S(=O)(=O)N(C)C)cc1NC(=O)c1cc(S(=O)(=O)N2CCCCC2)ccc1N1CCOCC1", "Potency": "inconclusive: 11.2 µM [inhibitor, partial curve]"}
{"smiles": "CCOc1ccc(N(CC(=O)NCc2ccco2)S(=O)(=O)c2ccc(OC)c(OC)c2)cc1", "Potency": "inactive and inconclusive: 3.55 µM [inhibitor, single point]"}
{"smiles": "CCC1=NN(C(=O)c2ccccc2O)C(O)(c2ccccc2)C1", "note": "(configuration not stated)", "Potency": "inconclusive: 31.6 µM [inhibitor, single point]"}
{"smiles": "CCOc1ccccc1N1CCN(C(=O)CCCc2nc3ccccc3s2)CC1", "Potency": "inconclusive: 2.82 µM [inhibitor, full curve]"}
{"smiles": "CN(C)CCCN(C(=O)CCSc1ccccc1)c1nc2cc3c(cc2s1)OCO3", "Potency": "inconclusive: 31.6 µM [inhibitor, single point]"}
{"smiles": "C[C@H](NC(=O)c1ccc(C(C)(C)C)cc1)C(=O)N1CCN(C/C=C/c2ccccc2)CC1", "Potency": "inconclusive: 8.91 µM [inhibitor, single point]"}
{"smiles": "O=C(NC1CCN(C(=O)N2c3ccccc3Sc3ccccc32)CC1)c1ccccc1F", "Potency": "inconclusive: 31.6 µM [inhibitor, single point]"}
{"smiles": "COc1cccc(CC(=O)Nc2cc(S(=O)(=O)N3CCOCC3)ccc2OC)c1", "activity change, negative = inhibition": "inactive: 1.5%"}
{"smiles": "COc1ccccc1CN(CC(=O)NCc1ccc(F)cc1)C(=O)c1csnn1", "activity change, negative = inhibition": "inactive: 5.88%"}
{"smiles": "Cc1nc(SCC(=O)Nc2cccnc2Cl)nc(C)c1C", "activity change, negative = inhibition": "inactive: -0.586%"}
{"smiles": "Cc1cc(C(=O)Cn2cnc3ccc(Cl)cc3c2=O)c(C)n1C1CC1", "Potency": "inconclusive: 10 µM [inhibitor, partial curve]"}
{"smiles": "Cc1ccccc1-n1ncc2c1CC(C)(C)CC2NC(=O)CCC(F)(F)F", "note": "(configuration not stated)", "activity change, negative = inhibition": "inactive: -0.995%"}
{"smiles": "Cc1ccc(C(=O)NC(=S)NNC(=O)c2ccccc2O)cc1", "Potency": "inconclusive: 6.31 µM [inhibitor, partial curve]"}
{"smiles": "CSc1ccc(CN2CCC(CO)(Cc3ccc(Cl)cc3)CC2)cc1", "Potency": "inconclusive: 5.62 µM [inhibitor, partial curve]"}
{"smiles": "C=CCNC(=O)c1cn(CC)c2cc(N3CCN(C(=O)c4ccco4)CC3)c(F)cc2c1=O", "activity change, negative = inhibition": "inactive: -5.95%"}
{"smiles": "Fc1ccc(CNCCC(Cc2ccccc2)c2ccco2)cc1", "note": "(configuration not stated)", "Potency": "inconclusive: 31.6 µM [inhibitor, single point]"}
{"smiles": "COc1ccc(-c2cc(C(=O)N3CCN(c4ncccn4)CC3)c3ccccc3n2)c(OC)c1", "Potency": "inconclusive: 14.1 µM [inhibitor, single point]"}
{"smiles": "COc1ccc(C(C)=O)c2c(O)cccc12", "Potency": "inconclusive: 15.8 µM [inhibitor, single point]"}
{"smiles": "Cc1nn(-c2cccc(C(F)(F)F)c2)c(=O)c2noc(C)c12", "activity change, negative = inhibition": "inactive: 8.28%"}
{"smiles": "COc1ccc(/C=N/NC(=O)c2c(C)nnn2-c2nonc2N)cc1OC", "Potency": "inconclusive: 10 µM [inhibitor, partial curve]"}
{"smiles": "COc1cc2cc(CCCOC(=O)CCCC(=O)O)oc(=O)c2cc1OC", "activity change, negative = inhibition": "inactive: 6.49%"}
{"smiles": "Cc1ccc(C(=O)CCc2ccc(N)cc2)cc1", "Potency": "inconclusive: 6.31 µM [inhibitor, full curve, poor fit]"}
{"smiles": "CC(Sc1ccc(Cl)cc1)C(=O)NNC(=O)c1ccco1", "note": "(configuration not stated)", "Potency": "inconclusive: 0.501 µM [inhibitor, partial curve, poor fit]"}
{"smiles": "Cc1ccc(NS(=O)(=O)c2ccc(Cl)nc2)c(C)c1", "Potency": "inconclusive: 10 µM [inhibitor, partial curve]"}
{"smiles": "COc1ccc(C(=O)N2CCN(CCNC(=O)C(=O)Nc3ccc(F)cc3)CC2)cc1", "Potency": "inconclusive: 3.98 µM [inhibitor, partial curve]"}
{"smiles": "COc1cccc(N/C(=N/C(=S)Nc2ccc(C)cc2C)Nc2nc(C)cc(C)n2)c1", "Potency": "inconclusive: 12.6 µM [inhibitor, single point]"}
{"smiles": "COc1ccc(C(=O)COC(=O)Cc2c[nH]c3ccccc23)c(OC)c1", "Potency": "inconclusive: 31.6 µM [inhibitor, single point]"}
{"smiles": "O=C(CN1CCCCC1)Nc1cccc(Cl)c1Cl", "activity change, negative = inhibition": "inactive: 5.43%"}
{"smiles": "COc1cc(C(=O)N/N=C(\\C)Cc2ccccc2)cc(OC)c1OC", "Potency": "inconclusive: 28.2 µM [inhibitor, single point]"}
{"smiles": "CC1(C)CC2(CC(c3ccccc3)c3ccc(O)cc3O2)NC(=S)N1", "note": "(configuration not stated)", "Potency": "inconclusive: 3.98 µM [inhibitor, partial curve]"}
{"smiles": "Cc1cccc(-n2ncc3c(N4CC(C)CC(C)C4)ncnc32)c1", "note": "(configuration not stated)", "Potency": "inconclusive: 25.1 µM [inhibitor, single point]"}
{"smiles": "COc1ccc(-n2sc3ccc(F)cc3c2=O)cc1", "Potency": "active: 2.82 µM"}
{"smiles": "Cc1nc([N+](=O)[O-])c(N2CCN(Cc3ccccc3)CC2)n1Cc1ccccc1", "activity change, negative = inhibition": "inactive: -6.97%"}
{"smiles": "CCOc1ccc2nc(N3CCC(C(=O)NC4CCCCC4)CC3)sc2c1", "activity change, negative = inhibition": "inactive: -6.06%"}
{"smiles": "COc1ccc(-c2ccc3c(N)c(C(=O)NC(C)C)sc3n2)cc1OC", "activity change, negative = inhibition": "inconclusive: -51.6% [inhibitor]"}
{"smiles": "COCCN(C(=S)Nc1ccc(C(C)C)cc1)C(C)c1cccs1", "note": "(configuration not stated)", "Potency": "inconclusive: 31.6 µM [inhibitor, single point]"}
{"smiles": "O=C(Cn1c(=O)[nH]c2ccccc2c1=O)N1CCN(Cc2ccc3c(c2)OCO3)CC1", "Potency": "inconclusive: 12.6 µM [inhibitor, partial curve]"}
{"smiles": "O=C(Cn1cc(C(F)(F)F)ccc1=O)N/N=C/c1ccccc1O", "Potency": "inconclusive: 31.6 µM [inhibitor, single point]"}
{"smiles": "CCCc1cc(-c2ccc3c(c2)COc2c4ccccc4nn2-3)on1", "Potency": "inconclusive: 3.55 µM [inhibitor, single point]"}
{"smiles": "O=C(NC1CCCCC1)c1ccc(NS(=O)(=O)c2cccc3cccnc23)cc1", "Potency": "inconclusive: 22.4 µM [inhibitor, single point]"}
{"smiles": "CCC(=O)N(Cc1ccco1)Cc1cc2cccc(C)c2n2nnnc12", "activity change, negative = inhibition": "inactive: 26.6%"}
{"smiles": "Cc1ccc(Cl)cc1N1CCN(C(=O)C2CCN(S(C)(=O)=O)CC2)CC1", "activity change, negative = inhibition": "inactive: -13.7%"}
{"smiles": "COc1cc(NC(=O)CN(C)Cc2ccc(OC(F)F)cc2)c(C)cc1[N+](=O)[O-]", "Potency": "inconclusive: 6.31 µM [inhibitor, partial curve, poor fit]"}
{"smiles": "CC(=O)Nc1ccc(C(=O)CSc2nc3ccc(C)cc3[nH]2)cc1", "Potency": "inconclusive: 31.6 µM [inhibitor, single point]"}
{"smiles": "CCOC(=O)c1nnn(-c2nonc2N)c1-c1ccc(Br)cc1", "activity change, negative = inhibition": "inactive: -2.72%"}
{"smiles": "CC(=O)c1c(C)[nH]c(C(=O)OCc2cccc(C)c2)c1C", "Potency": "active: 15.8 µM"}
{"smiles": "Cc1ccc(S(=O)(=O)N2CCCC2CNC(=O)c2ccc(F)c(F)c2)cc1", "note": "(configuration not stated)", "Potency": "inconclusive: 10 µM [inhibitor, single point]"}
{"smiles": "Cc1ccc(Cn2nnc3c(=O)[nH]c(C4CCN(S(=O)(=O)/C=C/c5ccccc5)CC4)nc32)cc1", "Potency": "inconclusive: 31.6 µM [inhibitor, single point]"}
{"smiles": "O=C(Nc1cccc(Cl)c1)Nc1cccc(C(=O)O)c1", "activity change, negative = inhibition": "inactive: 13.6%"}
{"smiles": "COc1ccc(-c2cc(-c3ccccc3)nc(SCC(=O)Nc3ncc(C)s3)c2C#N)cc1", "Potency": "inconclusive: 7.94 µM [inhibitor, partial curve]"}
